# Measurements reported in the BET-seq Pho4 binding data (Le et al. 2018).
# The list shows a part of the results. Values were computed here from the reads of four pooled replicates and scatter widely.
# Target: T1, Pho4 (S. cerevisiae) (UniProt P07270)
# T1 sequence: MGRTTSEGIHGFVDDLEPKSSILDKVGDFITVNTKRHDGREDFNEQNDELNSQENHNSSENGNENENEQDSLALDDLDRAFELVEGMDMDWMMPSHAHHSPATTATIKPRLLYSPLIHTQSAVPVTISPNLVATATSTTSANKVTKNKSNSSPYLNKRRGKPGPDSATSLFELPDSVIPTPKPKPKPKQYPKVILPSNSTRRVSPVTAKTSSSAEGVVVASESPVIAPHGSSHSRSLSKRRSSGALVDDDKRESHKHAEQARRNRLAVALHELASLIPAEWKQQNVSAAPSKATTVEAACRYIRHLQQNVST
# Assay: relative binding free energy (BET-seq); higher = weaker binding
# Details: reference: library average
row,Sequence,relative binding free energy
1,AGAATCACGTGTAGGG,0.2 kcal/mol
2,ATGGGCACGTGTTGCG,-0.1 kcal/mol
3,TGGTTCACGTGCTGTC,0.23 kcal/mol
4,CTGAGCACGTGAGTTG,0.25 kcal/mol
5,TTGGCCACGTGAGGGG,0.18 kcal/mol
6,CGTTGCACGTGAGCGT,0.11 kcal/mol
7,ATCGTCACGTGATAGG,0.21 kcal/mol
8,TACTACACGTGTTGTA,0.05 kcal/mol
9,GGTAGCACGTGATAAT,0.3 kcal/mol
10,GTTGACACGTGATCGT,0.27 kcal/mol
11,GGGATCACGTGGCCAG,0.24 kcal/mol
12,AGGAGCACGTGTGATT,-0.05 kcal/mol
13,AAGTGCACGTGACTGG,0.23 kcal/mol
14,TATGGCACGTGCGATA,-0.13 kcal/mol
15,TAGAGCACGTGGGCAG,-0.18 kcal/mol
16,AATGGCACGTGGACGG,-0.13 kcal/mol
17,TGCGGCACGTGGATTG,-0.02 kcal/mol
18,TACGGCACGTGTAAAG,0.16 kcal/mol
19,GAGTTCACGTGCCGGT,0.24 kcal/mol
20,TTTAGCACGTGGGGCA,-0.23 kcal/mol
21,AAGTGCACGTGTGTAA,0.04 kcal/mol
22,TACTTCACGTGGATGG,0.33 kcal/mol
23,TAGAGCACGTGGGCCG,-0.23 kcal/mol
24,GATATCACGTGTAGTT,0.26 kcal/mol
25,TGACTCACGTGGTGGT,0.18 kcal/mol
26,AGGTACACGTGGAGGT,0.06 kcal/mol

row,Sequence,relative binding free energy
1,TCAGGCACGTGGTTAG,-0.08 kcal/mol
2,AGTCTCACGTGTAAGG,0.18 kcal/mol
3,ATGGTCACGTGGGGTA,-0.07 kcal/mol
4,TATAGCACGTGTGCGC,0.03 kcal/mol
5,GCAAGCACGTGGTGGG,-0.09 kcal/mol
6,TATTTCACGTGTAGCT,0.27 kcal/mol
7,TTGAACACGTGTGTAG,0.01 kcal/mol
8,CTGAGCACGTGGGGTA,-0.31 kcal/mol
9,ATGTCCACGTGGCGGT,-0.12 kcal/mol
10,GGTTTCACGTGGGTCT,0.19 kcal/mol
11,TGAGTCACGTGTACTT,0.06 kcal/mol
12,TTGAACACGTGATGGG,0.09 kcal/mol
13,AATAACACGTGGGGTA,-0.21 kcal/mol
14,GCTGGCACGTGTAGGA,-0.04 kcal/mol
15,TCGGGCACGTGTGTAA,-0.11 kcal/mol
16,TCTTTCACGTGGTATA,0.24 kcal/mol
17,AAAGGCACGTGTCGTG,-0.12 kcal/mol
18,TCGTACACGTGCGGTT,0.01 kcal/mol
19,CTTGCCACGTGGGGTA,-0.2 kcal/mol
20,GGGGGCACGTGTCTTG,-0.09 kcal/mol
21,TATTGCACGTGGTTCT,-0.08 kcal/mol
22,CCTAGCACGTGGGGAG,-0.02 kcal/mol
23,CATGGCACGTGGGAGC,-0.12 kcal/mol
24,TTACTCACGTGTTTTA,0.12 kcal/mol
25,TCTGGCACGTGTCTTG,-0.04 kcal/mol
26,GGCGGCACGTGAAGGG,0.38 kcal/mol

row,Sequence,relative binding free energy
1,AGAATCACGTGTGTAT,0.17 kcal/mol
2,TGGTGCACGTGCCGGC,-0.14 kcal/mol
3,TCTTTCACGTGATTTA,0.24 kcal/mol
4,ATATTCACGTGTGCGA,0.34 kcal/mol
5,TCTGTCACGTGTCGAG,0.25 kcal/mol
6,TGAGCCACGTGGTAGG,-0.13 kcal/mol
7,GTTTGCACGTGCCGTG,0.07 kcal/mol
8,AGGATCACGTGGAGTG,0.27 kcal/mol
9,GGGAGCACGTGTAATA,0.02 kcal/mol
10,AGAGACACGTGGTGAG,-0.06 kcal/mol
11,TCATGCACGTGAGGTA,0.22 kcal/mol
12,GTTTACACGTGTGGCA,0.1 kcal/mol
13,GGGAACACGTGAGATG,0.39 kcal/mol
14,AATTTCACGTGAAAGT,0.37 kcal/mol
15,TTCTTCACGTGCTGGT,0.25 kcal/mol
16,ACTGTCACGTGTCGTG,0.02 kcal/mol
17,TCGCTCACGTGTGTGT,0.13 kcal/mol
18,TTGAACACGTGTGTTC,0.15 kcal/mol
19,TTACGCACGTGGTGAT,-0.19 kcal/mol
20,TGAGACACGTGGTGGC,0.06 kcal/mol
21,GTGGCCACGTGCGCGT,-0.07 kcal/mol
22,CATAGCACGTGGGGGG,-0.28 kcal/mol
23,CCTTGCACGTGGAGGG,-0.01 kcal/mol
24,TTATGCACGTGGCAGT,-0.1 kcal/mol
25,AGAGTCACGTGCGAGT,0.17 kcal/mol
26,CCCGGCACGTGAGGGG,0.01 kcal/mol

row,Sequence,relative binding free energy
1,TGTCACACGTGGTAAT,0.05 kcal/mol
2,TGAAGCACGTGGCGTG,-0.16 kcal/mol
3,GCTATCACGTGGTAGG,0.01 kcal/mol
4,GAGGTCACGTGGGGTG,0 kcal/mol
5,TGTCGCACGTGCGTGG,-0.18 kcal/mol
6,AGTTACACGTGTGACT,0.36 kcal/mol
7,TTATTCACGTGTAACT,0.25 kcal/mol
8,TTAAACACGTGGGGTC,-0.06 kcal/mol
9,TTCAGCACGTGATGGA,0.09 kcal/mol
10,GTGAGCACGTGAGTGC,0.23 kcal/mol
11,TAAGGCACGTGGGAAG,-0.18 kcal/mol
12,GAACTCACGTGGAGGT,0.35 kcal/mol
13,AGTCACACGTGGAGTA,0.11 kcal/mol
14,AAATTCACGTGGCAGG,0.38 kcal/mol
15,TTGTTCACGTGAAGGG,0.4 kcal/mol
16,GGTGGCACGTGGGAGC,-0.04 kcal/mol
17,AGTGTCACGTGTGATT,0.13 kcal/mol
18,TTTTGCACGTGGCATG,-0.19 kcal/mol
19,AAAAGCACGTGGAGTG,-0.18 kcal/mol
20,TTGTGCACGTGCATTT,0 kcal/mol
21,GGCTGCACGTGGTTGT,0.04 kcal/mol
22,GAAAGCACGTGTTTTA,0.14 kcal/mol
23,ACTTGCACGTGGAGGT,-0.16 kcal/mol
24,ATTTACACGTGTTAGG,0.07 kcal/mol
25,GGAGTCACGTGGATAT,0.17 kcal/mol
26,AGGGGCACGTGGATCA,-0.11 kcal/mol

row,Sequence,relative binding free energy
1,AGTTTCACGTGTGTCA,0.22 kcal/mol
2,CGACTCACGTGGGGGG,-0.04 kcal/mol
3,GAGTACACGTGGTGCG,0.05 kcal/mol
4,TGGGGCACGTGGGTCA,-0.29 kcal/mol
5,TAGCGCACGTGGAAGG,-0.19 kcal/mol
6,TATTACACGTGTGGTC,0.03 kcal/mol
7,ATTTGCACGTGCGTGG,-0.03 kcal/mol
8,CGGTACACGTGAGGTG,0.26 kcal/mol
9,AATCACACGTGGTGTA,0.07 kcal/mol
10,GATGGCACGTGTGGGC,0.05 kcal/mol
11,CCAGGCACGTGGGGGC,-0.2 kcal/mol
12,ATATGCACGTGCGAGG,-0.11 kcal/mol
13,AGTTACACGTGCGGCT,0.1 kcal/mol
14,ATGGGCACGTGGTACT,-0.23 kcal/mol
15,GGTGTCACGTGGATTT,0.2 kcal/mol
16,AATTCCACGTGTATTG,0.15 kcal/mol
17,TGATGCACGTGTGGAC,0.09 kcal/mol
18,GTGTGCACGTGTTATA,-0.06 kcal/mol
19,GTCGGCACGTGTTGAT,-0.03 kcal/mol
20,TCAAACACGTGGTGTT,-0.12 kcal/mol
21,TGGGACACGTGTGTTG,0.07 kcal/mol
22,ATATTCACGTGTTATG,0.28 kcal/mol
23,ACGTTCACGTGTCTTT,0.3 kcal/mol
24,TAAGTCACGTGGGGGG,0.02 kcal/mol
25,GGGAACACGTGTCGTT,0.16 kcal/mol
26,CATGTCACGTGAGGTG,0.24 kcal/mol

row,Sequence,relative binding free energy
1,ATTTTCACGTGTGTCA,0.33 kcal/mol
2,AAGCTCACGTGGGGGG,0 kcal/mol
3,AGCAGCACGTGGTTTA,-0.14 kcal/mol
4,GTCTACACGTGGTTGT,0.12 kcal/mol
5,GGTTTCACGTGTCAGA,0.2 kcal/mol
6,GGTAGCACGTGTCTTG,-0.07 kcal/mol
7,GTGTGCACGTGTAGCT,-0.08 kcal/mol
8,GTCCGCACGTGTGGGC,0.13 kcal/mol
9,TCTGGCACGTGTTGGG,-0.03 kcal/mol
10,TAGTTCACGTGGTCTT,0.14 kcal/mol
11,TGCGACACGTGTAGTA,0.1 kcal/mol
12,ATAGTCACGTGTGGGA,0.08 kcal/mol
13,GTGGTCACGTGGAGGG,0.1 kcal/mol
14,CTGCTCACGTGAGTGG,0.28 kcal/mol
15,GTGGTCACGTGCATAA,0.11 kcal/mol
16,AACTGCACGTGGTTGG,-0.05 kcal/mol
17,TAGTGCACGTGGGCGT,-0.16 kcal/mol
18,TCGTGCACGTGATGAG,0.14 kcal/mol
19,TGTATCACGTGACGGC,0.37 kcal/mol
20,TGTTGCACGTGTTGGT,0.04 kcal/mol
21,AATAACACGTGGGTGG,-0.11 kcal/mol
22,GTCAGCACGTGGGGAA,-0.14 kcal/mol
23,TTAATCACGTGATGGC,0.22 kcal/mol
24,CTTGGCACGTGTGTTT,-0.02 kcal/mol
25,GAGGGCACGTGGTGAC,-0.11 kcal/mol
26,CATGTCACGTGGGGGG,0 kcal/mol

row,Sequence,relative binding free energy
1,ATGATCACGTGTTCTG,0.22 kcal/mol
2,TTAACCACGTGGAGGT,-0.1 kcal/mol
3,TTATGCACGTGGGTGC,-0.12 kcal/mol
4,TGGTACACGTGTGACT,0.22 kcal/mol
5,TAGGACACGTGTATTT,-0.03 kcal/mol
6,AGCGGCACGTGGCAGG,-0.3 kcal/mol
7,GGAGTCACGTGTCATT,0.06 kcal/mol
8,TTGTACACGTGGTGGC,0.07 kcal/mol
9,TTGCTCACGTGTGCGG,0.25 kcal/mol
10,GGATTCACGTGGGGTC,0.21 kcal/mol
11,TATTACACGTGTAAGG,0.2 kcal/mol
12,GTTGTCACGTGGGTAG,-0.1 kcal/mol
13,TAATGCACGTGGGATT,-0.17 kcal/mol
14,GTGGTCACGTGCCTTT,0.04 kcal/mol
15,GGATGCACGTGGACTG,0.13 kcal/mol
16,CTGAACACGTGGTGGT,-0.04 kcal/mol
17,ACTGTCACGTGAGTTT,0.25 kcal/mol
18,AACATCACGTGTTGTG,-0.04 kcal/mol
19,TAGTGCACGTGTGATG,0.06 kcal/mol
20,TTGGGCACGTGAAGGA,0.21 kcal/mol
21,GGTAACACGTGTGTTC,0.1 kcal/mol
22,TGATGCACGTGCATTT,-0.02 kcal/mol
23,GTTGGCACGTGAGGCG,0.18 kcal/mol
24,CATATCACGTGGGGTG,0.03 kcal/mol
25,AAAGTCACGTGCGATG,0.23 kcal/mol
26,AGGTGCACGTGCGCAG,-0.15 kcal/mol

row,Sequence,relative binding free energy
1,GGGAGCACGTGGTAAT,-0.08 kcal/mol
2,GTTTACACGTGGAGAA,0.19 kcal/mol
3,TATTACACGTGAAGTG,0.27 kcal/mol
4,TGTTTCACGTGCTGGA,0.28 kcal/mol
5,AAATGCACGTGTGGCA,0.16 kcal/mol
6,TTTTGCACGTGCGGAA,-0.12 kcal/mol
7,TTGTACACGTGGGAAG,-0.13 kcal/mol
8,ATTTTCACGTGTACGA,0.38 kcal/mol
9,GTTTGCACGTGCTGTA,0.13 kcal/mol
10,GGGTACACGTGTGCAG,0.23 kcal/mol
11,GGATGCACGTGAAGTA,0.19 kcal/mol
12,AATTGCACGTGAGTAG,0.38 kcal/mol
13,TGGTACACGTGCGTAA,0.11 kcal/mol
14,GTGGTCACGTGGTATA,0.07 kcal/mol
15,GGCGTCACGTGGGAGA,-0.04 kcal/mol
16,TCGTTCACGTGGTGGC,0.26 kcal/mol
17,GTGGGCACGTGAATGT,0.16 kcal/mol
18,TTGAGCACGTGGCTAG,-0.17 kcal/mol
19,GGTTGCACGTGAGAAA,0.27 kcal/mol
20,GATGTCACGTGTACGA,0.25 kcal/mol
21,TGGAACACGTGGGTCT,0.01 kcal/mol
22,ATTATCACGTGTTGTT,0.11 kcal/mol
23,TGGGACACGTGTGGGG,0.08 kcal/mol
24,AATGGCACGTGGTGGC,-0.34 kcal/mol
25,TACGGCACGTGGATTT,0.06 kcal/mol
26,AGCGGCACGTGTTTGG,0.03 kcal/mol

row,Sequence,relative binding free energy
1,TATAGCACGTGGAGAG,-0.12 kcal/mol
2,TGTGTCACGTGATTAG,0.23 kcal/mol
3,GGTAGCACGTGGTGCC,-0.03 kcal/mol
4,TTCCGCACGTGGGTAG,-0.06 kcal/mol
5,TTGTTCACGTGGATTT,0.28 kcal/mol
6,TGCTGCACGTGTTGTT,-0.06 kcal/mol
7,CCTGGCACGTGGTGTA,-0.16 kcal/mol
8,ATGTACACGTGCGAGT,0.13 kcal/mol
9,TATGTCACGTGGATTT,0.22 kcal/mol
10,TTATTCACGTGAGGGT,0.38 kcal/mol
11,TAAATCACGTGTTTAA,0.17 kcal/mol
12,AGGTTCACGTGACGAT,0.27 kcal/mol
13,TTTGTCACGTGCTTGA,0.06 kcal/mol
14,ATTTTCACGTGGCGAA,0.22 kcal/mol
15,GTGCCCACGTGTATGT,0.08 kcal/mol
16,CTCATCACGTGGGTGT,0 kcal/mol
17,CGACGCACGTGAGGGT,0.16 kcal/mol
18,TTTGGCACGTGATGTA,-0.04 kcal/mol
19,GAGGTCACGTGCTATG,0.12 kcal/mol
20,TGTTCCACGTGGGTCA,-0.02 kcal/mol
21,GGCTGCACGTGTGGGC,0.09 kcal/mol
22,TAGGACACGTGTATGT,0.06 kcal/mol
